Measurements published in publication PMC4336329 (PLoS ONE, 2015).
Out of some 310,000 compounds screened, about 14,000 (4.5%) showed an effect of 50% or more. Effects have a minus sign here. This is one part of the list.

These molecules were tested against human ether-à-go-go-related gene (hERG) potassium channel (human, UniProt Q12809) (assay: primary screen, population patch clamp on CHO cells stably expressing hERG).
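Note: peak tail current of the secondary pulse compared with the same well before compound.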

Chain of human ether-à-go-go-related gene (hERG) potassium channel (Q12809 whole entry, looked up): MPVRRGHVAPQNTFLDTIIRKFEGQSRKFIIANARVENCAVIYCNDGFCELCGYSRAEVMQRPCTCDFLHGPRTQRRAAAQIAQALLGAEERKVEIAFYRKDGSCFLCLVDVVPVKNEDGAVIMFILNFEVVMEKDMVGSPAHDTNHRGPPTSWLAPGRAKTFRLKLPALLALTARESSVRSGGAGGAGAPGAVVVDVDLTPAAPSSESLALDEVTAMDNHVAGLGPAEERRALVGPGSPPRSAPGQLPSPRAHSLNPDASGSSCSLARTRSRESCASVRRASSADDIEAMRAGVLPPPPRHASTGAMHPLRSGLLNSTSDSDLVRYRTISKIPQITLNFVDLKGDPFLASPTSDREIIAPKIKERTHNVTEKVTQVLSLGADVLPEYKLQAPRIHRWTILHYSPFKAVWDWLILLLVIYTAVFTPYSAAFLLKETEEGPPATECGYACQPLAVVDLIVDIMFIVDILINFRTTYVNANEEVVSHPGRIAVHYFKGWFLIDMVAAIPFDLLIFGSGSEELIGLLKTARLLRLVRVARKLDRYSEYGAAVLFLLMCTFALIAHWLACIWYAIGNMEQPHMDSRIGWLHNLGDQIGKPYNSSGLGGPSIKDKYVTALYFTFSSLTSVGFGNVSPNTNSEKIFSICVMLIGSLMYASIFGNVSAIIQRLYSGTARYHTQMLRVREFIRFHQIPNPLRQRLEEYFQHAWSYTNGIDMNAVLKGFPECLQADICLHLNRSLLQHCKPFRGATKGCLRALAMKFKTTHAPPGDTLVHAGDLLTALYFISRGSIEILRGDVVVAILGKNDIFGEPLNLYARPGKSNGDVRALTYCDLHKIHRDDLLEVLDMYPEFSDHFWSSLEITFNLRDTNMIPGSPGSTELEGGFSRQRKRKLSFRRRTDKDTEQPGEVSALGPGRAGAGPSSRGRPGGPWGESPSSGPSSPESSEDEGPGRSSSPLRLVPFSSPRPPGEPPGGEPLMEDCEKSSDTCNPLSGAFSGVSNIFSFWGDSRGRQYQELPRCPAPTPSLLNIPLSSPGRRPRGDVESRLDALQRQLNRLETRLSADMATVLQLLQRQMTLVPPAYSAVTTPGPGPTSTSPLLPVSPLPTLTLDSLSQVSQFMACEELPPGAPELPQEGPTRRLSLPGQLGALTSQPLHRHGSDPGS

Going from `COc1cc(OC)c(Cl)cc1N` to `C=CCOc1ccc(/C=C2\N=C(C)OC2=O)cc1OC`, the “hERG current change (%, negative = inhibition) at 10uM” value rises from 7.89% to 28.8%.

First: CCC(=O)NC(C)C(c1cccs1)N1CCN(c2ccccc2)CC1 (stereo not drawn)
Second: Cc1ccccc1-n1c(=O)cc(N2CCN(C(=O)c3ccco3)CC2)[nH]c1=O
The “hERG current change (%, negative = inhibition) at 10uM” value of the first is higher: 5.24% for the first, 1.89% for the second.

Going from `CCc1cc2c(=O)n(Cc3ccco3)c(SCC(=O)NCC3CCCO3)nc2s1` (stereo not drawn) to `Cc1oc(-c2cc(F)ccc2F)nc1CN1CCCN(C(=O)c2ccco2)CC1`, the “hERG current change (%, negative = inhibition) at 10uM” value rises from -70.2% to -36.6%.

Going from `CCCOc1ncnc2c1[nH]c1ccccc12` to `CCc1c(C)[nH]c2ccccc2c1=O`, the “hERG current change (%, negative = inhibition) at 10uM” value falls from -11.8% to -13.1%.

Compared with `CC(O)c1cccc(NC(=O)Nc2cccc(NC(=O)Nc3cccc(C(C)O)c3)c2)c1` (stereo not drawn), `Cc1cc(C)cc(C(=O)Nc2ccc(NC(=O)Cc3ccccc3)cc2)c1` is higher in “hERG current change (%, negative = inhibition) at 10uM” value: 12.1% for the first, 23.2% for the second.

Compared with `CC1CCc2sc(C(=O)NCCCn3ccnc3)cc2C1` (stereo not drawn), `Cc1ccc(OCCn2ccnc2)c(C)c1` is higher in “hERG current change (%, negative = inhibition) at 10uM” value: -1.07% for the first, 6.52% for the second.

Compared with `O=C(Nc1ccccc1)c1nnn(Cc2ccccc2)c1NC(=O)C(F)(F)F`, `O=C(CC(c1ccccc1)c1ccccc1)Nc1ccc(C(=O)O)cc1` is higher in “hERG current change (%, negative = inhibition) at 10uM” value: -7.45% for the first, 16% for the second.

First: COc1ccc(OC)c(N(CC(=O)NCCSCc2ccco2)S(=O)(=O)c2ccc(OC)c(OC)c2)c1
Second: COc1ccccc1OCCNS(=O)(=O)c1ccc2oc3ccccc3c2c1
The “hERG current change (%, negative = inhibition) at 10uM” value of the first is lower: -22.6% for the first, -16.4% for the second.

Compared with `O=C(Nc1cccc(Cl)c1)/C(=C\c1cccnc1)NC(=O)c1ccco1`, `O=C(Nc1ccc(CN2CCOCC2)cc1)c1ccc(-c2cccc(Cl)c2)o1` is higher in “hERG current change (%, negative = inhibition) at 10uM” value: -67% for the first, -52.8% for the second.

First: COc1ccc(C(=O)CCC(=O)N2CCN(c3cccc(Cl)c3)CC2)cc1
Second: O=C(O)CSCC(=O)N1CCN(c2ccnc3cc(Cl)ccc23)CC1
The “hERG current change (%, negative = inhibition) at 10uM” value of the first is lower: -38.8% for the first, 9.15% for the second.

Compared with `N#Cc1ccccc1OCC(O)CS(=O)(=O)c1ccccc1` (stereo not drawn), `O=c1c2ccccc2ccc2ccccc12` is lower in “hERG current change (%, negative = inhibition) at 10uM” value: 1.8% for the first, -0.0838% for the second.

Compared with `COCCN(C(=O)CCc1nnc(CCc2c[nH]c3ccccc23)o1)C(C)C`, `Cc1cc(C)n(CC(C)NC(=O)CCc2nnc(CCc3ccccc3)o2)n1` (stereo not drawn) is higher in “hERG current change (%, negative = inhibition) at 10uM” value: 12.5% for the first, 21.4% for the second.

Going from `Cc1cc(C)cc(C(=O)N(NC(=O)Nc2ccc(Cl)cc2)C(C)(C)C)c1` to `COc1ccc(Cl)cc1NC(=O)c1nnn(CC(=O)Nc2cc(C)cc(C)c2)c1N`, the “hERG current change (%, negative = inhibition) at 10uM” value rises from 7.26% to 21%.

First: CC(NC(=S)Nc1ccc(S(=O)(=O)N2CCOCC2)cc1)C1CC2CCC1C2 (stereo not drawn)
Second: CC(Oc1cccc(Cl)c1)C(=O)Nc1cc(S(=O)(=O)N2CCOCC2)ccc1N1CCCC1 (stereo not drawn)
The “hERG current change (%, negative = inhibition) at 10uM” value of the first is higher: 14.7% for the first, -24.8% for the second.

Going from `COc1cc(S(=O)(=O)Nc2ccccc2C(=O)N2CCCCC2)ccc1NC(C)=O` to `COc1ccccc1C(=O)C1CCCN(C(=O)c2cn3cc(Cl)ccc3n2)C1` (stereo not drawn), the “hERG current change (%, negative = inhibition) at 10uM” value falls from -9.47% to -17.3%.

First: CC(=O)N1CCN(S(=O)(=O)c2ccc3c(c2)CC(=O)N3)CC1
Second: Cc1ccc(CN2CC(C(=O)N3CCN(S(=O)(=O)c4cc(C)ccc4C)CC3)CC2=O)cc1 (stereo not drawn)
The “hERG current change (%, negative = inhibition) at 10uM” value of the first is higher: -7.6% for the first, -47.6% for the second.

Going from `COc1ccc(NC(=O)c2nc(C)n(-c3ccc([N+](=O)[O-])cc3)n2)cc1` to `CCOC(=O)c1cc(-c2ccc(OC)cc2)nn1-c1ccc(C(=O)O)cc1`, the “hERG current change (%, negative = inhibition) at 10uM” value rises from -44.9% to 16.3%.

Compared with `COc1ccc(C(=O)CSc2ccc(-c3ccc(C)cc3)nn2)cc1`, `Cc1ccc(C(=O)CSc2nnc(CNc3ccc(F)cc3)o2)cc1` is higher in “hERG current change (%, negative = inhibition) at 10uM” value: 17.6% for the first, 29.3% for the second.

Compared with `Cc1oc2cc3oc(=O)c(CCC(=O)N(C)CC(=O)O)c(C)c3cc2c1C`, `Cc1ccc(NC(=O)CCC(=O)OC(C(=O)c2ccc(C)c(C)c2)c2ccccc2)c(C)c1` (stereo not drawn) is lower in “hERG current change (%, negative = inhibition) at 10uM” value: 6.84% for the first, -3.71% for the second.

Going from `COCCNC(=O)C(c1ccc(C)cc1)N(C(=O)CCC(=O)Nc1ccccn1)c1ccccc1C` (stereo not drawn) to `CCOc1ccccc1C(=O)N/N=C/c1cccc2cccnc12`, the “hERG current change (%, negative = inhibition) at 10uM” value falls from 6.03% to -0.673%.

Compared with `Cc1ccc(Cn2c(=O)n(CCC(=O)NCc3ccc4c(c3)OCO4)c(=O)c3ccccc32)cc1`, `CC(C)C(c1nnnn1Cc1ccc(F)cc1)N1CCN(Cc2ccc3c(c2)OCO3)CC1` (stereo not drawn) is lower in “hERG current change (%, negative = inhibition) at 10uM” value: -12.5% for the first, -43.3% for the second.

Compared with `Cc1nc(C(=O)NCc2ccccc2)sc1C1(C)CC(c2cccc([N+](=O)[O-])c2)=NO1` (stereo not drawn), `CCC(=O)Nc1c(-c2ccccc2)c(=O)c2ccccc2n1C` is higher in “hERG current change (%, negative = inhibition) at 10uM” value: -31.4% for the first, 10.8% for the second.

Compared with `CN(C)S(=O)(=O)c1cccc(NC(=O)c2cccc(NS(=O)(=O)c3ccccc3)c2)c1`, `COc1ccc(NS(=O)(=O)c2cccc(C(=O)NCC(c3ccc(F)cc3)N3CCOCC3)c2)cc1` (stereo not drawn) is lower in “hERG current change (%, negative = inhibition) at 10uM” value: 20.1% for the first, -29% for the second.

Compared with `CCOC(=O)c1c(NC(=O)CC2SC(=NC)N(C)C2=O)sc(C)c1C` (stereo not drawn), `CCOC(=O)c1c(NC(=O)COC(=O)Cn2cnc3ccccc32)sc(C)c1C` is higher in “hERG current change (%, negative = inhibition) at 10uM” value: -4.78% for the first, 13.5% for the second.

Compared with `CC1=NN(C(=O)c2nn(C)cc2Br)C(O)(C(F)(F)F)C1` (stereo not drawn), `O=C(Cn1cc(C(F)(F)F)ccc1=O)N/N=C/c1ccc(Cl)cc1` is lower in “hERG current change (%, negative = inhibition) at 10uM” value: 10.3% for the first, -11.3% for the second.

First: CCCCN(Cc1ccccc1)S(=O)(=O)c1ccc2[nH]c(=O)oc2c1
Second: Cc1ccc(S(=O)(=O)N(C)C)cc1NC(=O)CN1C(=O)NC(Cc2c[nH]c3ccccc23)C1=O (stereo not drawn)
The “hERG current change (%, negative = inhibition) at 10uM” value of the first is lower: 5.06% for the first, 5.59% for the second.

Going from `CCCCn1c(O)c(C(C)=Nc2ccc(OCC)cc2)c(=O)[nH]c1=O` to `CCOC(=O)CSc1nnc(-c2ccoc2C)n1-c1ccc(OCC)cc1`, the “hERG current change (%, negative = inhibition) at 10uM” value falls from -13.9% to -66.5%.

Going from `CN(CC(=O)Nc1ccccc1C(F)(F)F)C(=O)c1cccc(-n2cccc2)c1` to `CN(C)CCNC(=O)C(C(=O)c1ccc(F)cc1)n1ccccc1=O.Cl` (stereo not drawn), the “hERG current change (%, negative = inhibition) at 10uM” value rises from -14% to 16.6%.

Compared with `O=C(COc1coc(CN2CCc3ccccc3C2)cc1=O)Nc1ccc(Cl)cc1`, `Cn1c(CC(=O)Nc2ccc(Cl)cc2)nnc1SCC(=O)N1CCOCC1` is higher in “hERG current change (%, negative = inhibition) at 10uM” value: -1.22% for the first, -0.702% for the second.

Going from `CSc1nnc2c(n1)OC(c1cccn1C)N(C(C)=O)c1ccccc1-2` (stereo not drawn) to `COc1ccccc1N1C(=O)N(C(C)=O)C2C1Nc1ccccc1N2C` (stereo not drawn), the “hERG current change (%, negative = inhibition) at 10uM” value falls from -10.1% to -12.7%.

Compared with `CCC(C)c1ccc(NC(=S)NCc2ccccn2)cc1` (stereo not drawn), `COc1ccc(NC(=O)CC(C)c2ccccc2)c([N+](=O)[O-])c1` (stereo not drawn) is lower in “hERG current change (%, negative = inhibition) at 10uM” value: -3.97% for the first, -11.2% for the second.

Going from `CC1=NNC(=O)C1Cc1ccc(F)cc1` (stereo not drawn) to `Cc1[nH]c2ccccc2c1C(=O)C(=O)NC1CC(=O)N(c2ccc(F)cc2)C1` (stereo not drawn), the “hERG current change (%, negative = inhibition) at 10uM” value falls from 9.34% to -51.9%.

Going from `CCN(CCNC(=O)C1=C(C)C(=O)OC12CCC(C)CC2)c1ccccc1` (stereo not drawn) to `CN(C)c1ccc(C=C2C(=O)OC3(CCCC3)OC2=O)cc1`, the “hERG current change (%, negative = inhibition) at 10uM” value rises from -2.08% to 40.2%.

First: COc1ccc(S(=O)(=O)NC2CC2)cc1-n1cnnn1
Second: CCOC(=O)c1nn(-c2ccccc2)c(=O)c2c(NC(C)=O)scc12
The “hERG current change (%, negative = inhibition) at 10uM” value of the first is lower: 4.63% for the first, 8.83% for the second.

Compared with `CCCCCc1ccc(CC(=O)N2CCOCC2)cc1`, `C/C(=N\NC(=O)C(c1ccncc1)N1CCOCC1)c1ccc(Br)cc1` (stereo not drawn) is higher in “hERG current change (%, negative = inhibition) at 10uM” value: 3.09% for the first, 9.75% for the second.

Going from `O=c1onc(-c2ccc(Cl)cc2Cl)n1-c1cccnc1` to `Cc1onc(-c2ccccc2)c1C(=O)Nc1nncs1`, the “hERG current change (%, negative = inhibition) at 10uM” value rises from -0.625% to 12.9%.

Going from `Cc1ccc(Cn2c(C3CCCN3c3nc(-c4ccc(F)cc4)cs3)nc3cc(Cl)c(Cl)cc32)cc1` (stereo not drawn) to `Fc1cccc(Cn2cc(C(=S)N3CCCCC3)c3ccccc32)c1`, the “hERG current change (%, negative = inhibition) at 10uM” value falls from 9.9% to 6.93%.

Going from `CCN(CC)CCN(Cc1cc2cc(C)ccc2[nH]c1=O)C(=O)Nc1ccccc1OC` to `CN(C)CCCNc1nc(-c2ccccc2)nc2ccccc12.Cl`, the “hERG current change (%, negative = inhibition) at 10uM” value rises from -62.2% to -13.5%.

Compared with `CCCCNc1nc(N)nc(-c2cc(Cl)ccc2O)n1`, `CCCc1cnc(NCCNCC(O)COc2ccc(Cl)c(Cl)c2)nc1` (stereo not drawn) is lower in “hERG current change (%, negative = inhibition) at 10uM” value: 20.9% for the first, -71.2% for the second.

Compared with `CC(C)(C)N(CC#CCC(O)(c1ccccc1)c1ccccc1)CCO`, `CCOC(=O)CSc1nc(-c2ccccc2)ns1` is higher in “hERG current change (%, negative = inhibition) at 10uM” value: -10.6% for the first, 6.65% for the second.

First: CC(NC(=O)c1ccco1)C(=O)OCC(=O)N1CCCCCC1 (stereo not drawn)
Second: Cc1cc(NC(=O)C(C)SCC(=O)Nc2ccccc2N2CCCCC2)no1 (stereo not drawn)
The “hERG current change (%, negative = inhibition) at 10uM” value of the first is higher: 11.1% for the first, 0.462% for the second.

Compared with `O=S(=O)(NCc1cccs1)NCc1ccccc1F`, `COC(=O)c1ccc(CSc2ncnc3ccccc23)o1` is higher in “hERG current change (%, negative = inhibition) at 10uM” value: 3.98% for the first, 12.7% for the second.

Compared with `Nc1ncnc(Nc2c(F)cccc2F)n1`, `CCc1nc2ccccc2n1CC(=O)N(C(C)CC)C1CCS(=O)(=O)C1` (stereo not drawn) is higher in “hERG current change (%, negative = inhibition) at 10uM” value: -3.04% for the first, 5.72% for the second.

`CCOC(=O)c1c(/N=C/c2cc([N+](=O)[O-])ccc2O)sc(C)c1C` was tested, and the “hERG current change (%, negative = inhibition) at 10uM” value was 11.1%.
